# Measurements reported in PubChem BioAssay AID2546 (National Center for Advancing Translational Sciences (NCATS), 2010).
# Values joined by “and” are separate entries in the source; they are usually repeats but may differ in a detail not shown here. Identical values can stand only once. In all, about 310,000 compounds went through this assay and about 11,000 (3.5%) were called active. The inconclusive results got no clear call from the source; some entries with a clear call stand among them for comparison. Calls come from the whole dose curve; as a rule, active = well fitted inhibition curve with a large enough effect; inconclusive = small, poorly fitted or top-dose-only effect, or effect the other way; inactive = flat fitted curve, though single readings scatter. No potency is given beside an inconclusive call; the fits are too rough.
# Assay: VP16 counterscreen qHTS for inhibitors of ROR gamma transcriptional activity;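 note: Gal4-VP16 expression switched on by copper sulfate through the metallothionein promoter; nearly all actives have a fitted effect of over 50% in size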
# Settings: Drosophila S2 Gal4-VP16 UAS-luciferase, luminescence, 20 h; series mostly up to 53.6 µM
# Potency is the fitted concentration of half-maximal effect; tags give direction and shape of the fitted curve.
row,SMILES,Potency
1,Cc1ccc([N+](=O)[O-])cc1S(=O)(=O)NCCc1c(C)[nH]c2ccccc12,"inconclusive [activator, single point]"
2,CN(C)c1ccc(/C=C/C(=O)c2ccccc2O)cc1,"inconclusive [inhibitor, single point]"
3,CCN(CC)c1ccc(NC(=S)NC(=O)c2ccco2)cc1,active: 15.8 µM
4,O=C(CSc1nc(-c2ccccc2)cs1)NCc1ccco1,inactive
5,COc1cccc(/C=N/NC(=O)c2c(C)nc3ccc(Br)cn23)c1O,active: 2.51 µM
6,COC(=O)Nc1sc2c(c1C(=O)N1CCOCC1)CCC(C)C2 (stereo unspecified),inactive
7,Fc1ccccc1-c1csc(-c2cccnc2)n1,"inconclusive [activator, full curve, poor fit]"
8,Cc1ccc(-c2nnc(N3CCN(S(C)(=O)=O)CC3)c3ccccc23)cc1,"inconclusive [inhibitor, single point]"
9,CCN1/C(=C/C=C/c2oc3ccc(-c4ccccc4)cc3[n+]2CC)Oc2ccc(-c3ccccc3)cc21,active: 0.355 µM
10,O=C(CSc1nnc(NC(=O)c2ccc(S(=O)(=O)N3CCOCC3)cc2)s1)Nc1ccccc1C(F)(F)F,inactive
11,COc1c(C)cc(Br)cc1C(=O)NC(=S)NCc1ccco1,"inconclusive [inhibitor, single point]"
12,Cc1cc(=O)nc2c3ccccc3n(C(C)C(=O)NCCN3CCOCC3)n12 (stereo unspecified),inactive
13,Cc1ccccc1NNC(=O)C(=O)NNc1ccccc1C,"inconclusive [activator, single point]"
14,COc1cccc(NC(=O)c2cc(=O)c3ccccc3o2)c1,inactive
15,CCN(CC)CCOC(=O)c1ccc(NC(=O)CCCN2C(=O)/C(=C/c3cccs3)SC2=S)cc1,active: 11.2 µM
16,O=C(CSc1nc2ccccc2[nH]1)NCc1ccccc1,inactive
17,CCOC(=O)C1CCCN(c2c(N3CCN(c4ccccn4)CC3)c(=O)c2=O)C1 (stereo unspecified),inactive
18,Cc1c(CCC(=O)O)c(=O)oc2cc3oc4c(c3cc12)CCCC4,"inconclusive [inhibitor, full curve]"
19,CC(=O)Oc1c(I)cc(I)cc1C(=O)Nc1ccc(Cl)cc1,"inconclusive [inhibitor, single point]"
20,CCNC(=S)NS(=O)(=O)c1ccc(C)cc1,"inconclusive [inhibitor, single point]"
21,Cc1ccc(CSc2nnc(SCC(=O)N/N=C/C=C/c3ccccc3[N+](=O)[O-])s2)cc1,"inconclusive [inhibitor, single point]"
22,COc1cc2ccccc2cc1C(=O)Nc1nc(C)c(C(C)=O)s1,"inconclusive [inhibitor, single point]"
23,CC(C)(C)C(=O)Nc1sc2c(c1-c1nc3ccccc3[nH]1)CCCC2,"inconclusive [inhibitor, full curve]"
24,S=C(c1cn(CCOc2cccc3ccccc23)c2ccccc12)N1CCCC1,"inconclusive [inhibitor, single point]"
25,CCC(=O)Nc1ccc(-c2nnc(-c3ccccc3)o2)cc1,"inconclusive [inhibitor, single point]"
26,Cc1ccc(NS(=O)(=O)c2ccc3c(c2)n(C)c(=O)n3C)c(C)c1,inactive

row,SMILES,Potency
1,Cc1ccc(OCC(=O)NNC(=O)C(C)Sc2ncnc3sc(C)c(C)c23)cc1 (stereo unspecified),"inconclusive [inhibitor, single point]"
2,COCCN(C(=S)Nc1ccc(C)c(C)c1)C(C)c1ccco1 (stereo unspecified),"inconclusive [inhibitor, single point]"
3,Clc1ccc2nc(-c3ccccc3)cn2c1,"inconclusive [inhibitor, single point]"
4,CCCCOC(=O)n1c(=O)oc2ccc(S(=O)(=O)N3CCCCC3)cc21,"inconclusive [inhibitor, single point]"
5,Fc1cccc(Cc2noc(CN3CCCCC3CCc3ccccn3)n2)c1 (stereo unspecified),"inconclusive [activator, single point]"
6,Cn1cc(CN(CCO)Cc2cccs2)c(-c2ccccc2F)n1,inactive
7,O=C(COc1ccccc1)Nc1nnc(-c2ccco2)o1,"inconclusive [inhibitor, single point]"
8,CCOC(=O)C1CCCN(c2nc3ccccc3nc2C(C#N)C(=O)OC(C)C)C1 (stereo unspecified),inactive
9,CS(=O)(=O)N(CC(=O)NCCSCc1ccccc1Cl)c1ccccc1F,inactive
10,CC(C)Oc1ccc(Cn2c(-c3ccco3)n[nH]c2=S)cc1,active: 4.47 µM
11,Cc1cc(C)nc(NNC(=O)NC2CCCCC2)n1,inactive
12,Cn1cccc1C(=O)N1CCC[C@@]2(CCN(C(c3ccccc3)c3ccccc3)C2)C1,inactive
13,Cc1cc2c(Nc3ccc(O)cc3)ncnc2s1,"inconclusive [activator, single point]"
14,CCCCn1c(N)c(N(CC(C)C)C(=O)CCCc2cccs2)c(=O)[nH]c1=O,"inconclusive [inhibitor, full curve, poor fit]"
15,CN(C(=O)CSc1nc2cc(Cl)ccc2c(=O)n1Cc1ccco1)C1CCS(=O)(=O)C1 (stereo unspecified),inactive
16,CC(C)(C)C1CCc2c(sc(NC(=O)c3cccs3)c2C(N)=O)C1 (stereo unspecified),"inconclusive [inhibitor, full curve, poor fit]"
17,COc1ccc(CNC(=S)Nc2cc(OC)ccc2OC)cc1,"inconclusive [inhibitor, single point]"
18,Cc1ccc(NC(=O)Cc2cc(C(=O)O)c3ccccc3n2)c(C)c1,"inconclusive [inhibitor, single point]"
19,N#CCC1c2ccccc2CCN1C(=O)Nc1cccc(C(F)(F)F)c1 (stereo unspecified),"inconclusive [inhibitor, single point]"
20,Cc1cc(C)c(C#N)c(Nc2ccccc2Cl)n1,inactive
21,COc1ccc(OC)c(CN2CCN(CCc3ccccc3)C(CCO)C2)c1 (stereo unspecified),inactive
22,CC1(C)Cc2ccccc2-c2nnc(SCC(=O)Nc3nc4ccccc4s3)n21,inactive
23,CCN1C(=S)N[C@@H](CCc2ccccc2)C(C(=O)OC)=C1C,"inconclusive [inhibitor, single point]"
24,COc1ccc(/C=c2\s/c(=C/C(=O)c3ccc(C)cc3)[nH]c2=O)cc1OC,"inconclusive [inhibitor, single point]"
25,COCC(C)n1c(C)cc(C(=O)CSc2nnc(N)s2)c1C (stereo unspecified),"inconclusive [inhibitor, single point]"
26,Cc1[nH]c(=O)c(C(=O)/C=C/c2ccccc2F)c2c1CCCC2,active: 5.62 µM

row,SMILES,Potency
1,COc1cccc(NC(=S)NCCC(c2ccccc2)c2ccccc2)c1,active: 22.4 µM
2,Cc1nc(Nc2ccccc2)sc1C,active: 12.6 µM
3,Cn1cccc1-c1nc2ccccc2[nH]1,inactive
4,C/C(Cn1cnc([N+](=O)[O-])n1)=N/NC(=O)COc1c(Cl)cc(Cl)cc1Cl,"inconclusive [activator, single point]"
5,CCN(CC)S(=O)(=O)c1ccc(NC(=O)CCC2CCCCC2)cc1,"inconclusive [inhibitor, single point]"
6,CCOc1cccc2sc(N(CCCN(C)C)C(=O)c3ccc(S(=O)(=O)N(C)Cc4ccccc4)cc3)nc12,"inconclusive [inhibitor, single point]"
7,CCOC(=O)c1c(-c2ccc(C)cc2)csc1NC(=O)CCN1CCOCC1,inactive
8,O=C(CN1CCc2cc3c(cc2C1)OCCCO3)Nc1c(F)cccc1F,"inconclusive [inhibitor, single point]"
9,Cc1cc2oc(=O)cc(CSc3nc(N)cc(N)n3)c2cc1C,"inconclusive [inhibitor, single point]"
10,CC(C(=O)O)c1ccc(N2Cc3ccccc3C2=O)cc1 (stereo unspecified),active: 8.91 µM and active: 3.98 µM
11,COC(=O)c1c(C)nc2c(c(SC)nn2-c2ccccc2)c1N,"inconclusive [inhibitor, full curve, poor fit]"
12,O=C(NCCC1=CCCCC1)C(=O)NCC(c1ccco1)N1CCN(c2ccccc2F)CC1 (stereo unspecified),"inconclusive [inhibitor, single point]"
13,S=c1nc2ccccc2c2nc(-c3ccccc3Br)[nH]n12,active: 2.24 µM
14,CCOc1ccc(NC(=S)NC(=O)C2CCCC2)cc1,active: 6.31 µM
15,Cc1ccc(-c2nnn(CC(=O)Nc3ccc4nn(-c5ccccc5)nc4c3)n2)o1,inactive
16,Cc1ccc(-n2ncc3c(NCc4cccnc4)ncnc32)c(C)c1,active: 17.8 µM
17,O=C(c1ccc(CSc2nc3ccncc3[nH]2)cc1)N1CCN(c2cccc(Cl)c2)CC1,active: 11.2 µM
18,CC(=O)C(Cl)C(=O)Nc1ccccc1 (stereo unspecified),"inconclusive [inhibitor, single point]"
19,O=C(Nc1nccs1)c1cccc(S(=O)(=O)N2CCCCC2)c1,"inconclusive [inhibitor, single point]"
20,CCN(c1ccccc1)c1cc(C)nc2nc(C)nn12,inactive
21,CC(=O)N1c2ccc(S(=O)(=O)NCC3CCC(C(=O)NCc4ccco4)CC3)cc2CC1C (stereo unspecified),inactive
22,CCCCCCCn1c(NC(=O)CC)nc2ccccc21,active: 0.631 µM
23,CCCOc1ccc2c(=O)c(N3C(=O)c4ccccc4C3=O)c(C)oc2c1,"inconclusive [inhibitor, single point]"
24,CCc1nccn1S(=O)(=O)c1ccccc1[N+](=O)[O-],"inconclusive [inhibitor, single point]"
